We go through 58 compounds from PMC4336329 (PLoS ONE, 2015).

The whole screen tested about 310,000 compounds, of which about 2,200 (0.71%) showed an effect of 50% or more. Effects have a minus sign here. Some of the results follow.

human ether-à-go-go-related gene (hERG) potassium channel, sequence (Q12809 whole entry, looked up): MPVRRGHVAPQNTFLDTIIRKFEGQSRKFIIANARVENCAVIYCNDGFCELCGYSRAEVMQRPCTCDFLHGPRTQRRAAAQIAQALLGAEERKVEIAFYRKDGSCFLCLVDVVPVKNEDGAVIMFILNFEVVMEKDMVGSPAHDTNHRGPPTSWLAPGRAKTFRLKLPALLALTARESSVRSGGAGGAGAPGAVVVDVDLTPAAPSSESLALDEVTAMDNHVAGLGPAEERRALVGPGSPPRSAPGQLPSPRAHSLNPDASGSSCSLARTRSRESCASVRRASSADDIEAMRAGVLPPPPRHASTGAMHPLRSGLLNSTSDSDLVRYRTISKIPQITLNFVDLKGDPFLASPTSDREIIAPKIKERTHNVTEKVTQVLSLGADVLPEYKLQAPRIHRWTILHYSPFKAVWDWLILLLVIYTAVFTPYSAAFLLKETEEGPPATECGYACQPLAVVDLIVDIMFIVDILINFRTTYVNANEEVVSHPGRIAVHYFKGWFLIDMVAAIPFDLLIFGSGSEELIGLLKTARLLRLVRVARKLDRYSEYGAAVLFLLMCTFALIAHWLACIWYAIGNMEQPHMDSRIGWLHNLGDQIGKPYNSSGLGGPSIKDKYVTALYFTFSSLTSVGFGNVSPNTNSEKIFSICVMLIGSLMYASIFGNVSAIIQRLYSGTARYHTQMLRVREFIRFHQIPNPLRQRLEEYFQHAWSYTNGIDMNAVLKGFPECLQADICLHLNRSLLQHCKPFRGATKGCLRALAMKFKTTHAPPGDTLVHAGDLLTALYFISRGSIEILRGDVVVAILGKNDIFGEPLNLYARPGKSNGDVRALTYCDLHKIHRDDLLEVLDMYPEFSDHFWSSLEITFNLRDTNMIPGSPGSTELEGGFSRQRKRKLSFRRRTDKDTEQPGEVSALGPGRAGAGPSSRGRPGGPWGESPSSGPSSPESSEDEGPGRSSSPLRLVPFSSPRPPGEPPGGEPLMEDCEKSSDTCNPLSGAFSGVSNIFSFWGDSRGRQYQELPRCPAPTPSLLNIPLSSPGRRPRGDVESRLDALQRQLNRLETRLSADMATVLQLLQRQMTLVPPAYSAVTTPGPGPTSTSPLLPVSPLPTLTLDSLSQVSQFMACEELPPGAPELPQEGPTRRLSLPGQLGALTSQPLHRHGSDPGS

This assay has as its target human ether-à-go-go-related gene (hERG) potassium channel (human, UniProt Q12809). Nature of the assay: primary screen, population patch clamp on CHO cells stably expressing hERG.
Regarding `O=C(OCc1cnc(Cl)s1)c1c(F)cccc1F`, the “hERG current change (%, negative = inhibition) at 1uM” value came out at 11%.

For `CC(SC1=NCCS1)C(=O)Nc1nnc(-c2ccc(Br)cc2)s1` (stereo not shown), the “hERG current change (%, negative = inhibition) at 1uM” value is given as -13.5%. For `CC(C)c1ccc(C(=O)NCCCNC(=O)c2cnccn2)cc1`, the “hERG current change (%, negative = inhibition) at 1uM” value came out at 7.05%. For `Cc1ccc(NC(=O)CC2Oc3ccc(C)cc3NC2=O)c(C)c1` (stereo not shown), the “hERG current change (%, negative = inhibition) at 1uM” value is listed as 14.3%. For the compound `COc1ccc(CCNC(=O)Nc2cccs2)c(OC)c1`, the “hERG current change (%, negative = inhibition) at 1uM” value came to 17.2%.

With `COc1ccccc1C(=O)Nc1ccnn1C1CCN(C(=O)c2ccoc2C)CC1`, the “hERG current change (%, negative = inhibition) at 1uM” value is given as -7.86%.

As to `Cc1ccc(CNC(=O)C(C(=O)NCc2ccc(C)o2)c2ncc(C(F)(F)F)cc2Cl)o1`, the “hERG current change (%, negative = inhibition) at 1uM” value was determined as 14.6%. Turning to `CCCc1nc2ccccc2n1CCOc1ccccc1`, the “hERG current change (%, negative = inhibition) at 1uM” value is reported as 1.02%. For `CCCCCCN=C(C)c1c(O)n(Cc2ccccc2)c(=O)[nH]c1=O`, the “hERG current change (%, negative = inhibition) at 1uM” value is -0.034%. The value for `COc1ccc(CNC(=O)CCCNS(=O)(=O)c2cccc3nonc23)cc1` was 7.35%; that for `CCc1c(C)nc(N2CCN(c3ccc(F)cc3)CC2)[nH]c1=O` was 17%. On to `CCC(=O)c1ccc(OC(=O)N(C)c2ccccc2)cc1`, for which the “hERG current change (%, negative = inhibition) at 1uM” value stood at 14.5%. For `CC(C)(C)c1ccc(OCCCNC2CCCC2)cc1.O=C(O)C(=O)O`, the “hERG current change (%, negative = inhibition) at 1uM” value is -12.8%.

As to `CCOC(=O)C1CCN(C(=O)COC(=O)CCOc2ccc(C)cc2)CC1`, the “hERG current change (%, negative = inhibition) at 1uM” value worked out at 4.66%.

As for `CCOC(=O)c1ccc2nc(C)cc(Nc3cccc(C(=O)O)c3)c2c1`, the “hERG current change (%, negative = inhibition) at 1uM” value came out at 12.8%. The value for `COc1ccccc1N1CCN(C2=NS(=O)(=O)c3ccccc32)CC1` was -2.1%; that for `N#Cc1ccc(C(=O)CSc2n[nH]c(=O)n2Cc2ccco2)cc1` was -6.45%.

`O=C(NNc1ccc([N+](=O)[O-])cc1[N+](=O)[O-])c1ccco1`: the “hERG current change (%, negative = inhibition) at 1uM” value is 9.64%. On to `CC1Cc2ccccc2N1C(=S)NC(=O)C1(C)CC1(Cl)Cl` (stereo not shown), for which the “hERG current change (%, negative = inhibition) at 1uM” value was found to be 6.81%. As for `CN1CCN(NC(=O)c2cc(-c3ccc(Cl)s3)nc3ccccc23)CC1`, the “hERG current change (%, negative = inhibition) at 1uM” value came to 11.9%.

As for `CCOC(=O)N1CCN(C(=O)Nc2cccc3ccccc23)CC1`, the “hERG current change (%, negative = inhibition) at 1uM” value amounted to 7.5%. Take `Cc1nc2c(-c3ccc(F)cc3)c(C)nn2c(C)c1CCC(=O)NC(C)CCc1ccco1` (stereo not shown): the “hERG current change (%, negative = inhibition) at 1uM” value is given as -26.8%. As for `CCN(CC)C(=O)c1sc(NC(=O)c2ccc(OC)c([N+](=O)[O-])c2)c(C#N)c1C`, the “hERG current change (%, negative = inhibition) at 1uM” value turned out to be 10.5%.

Take `Cc1cccc(N2C(=O)c3ccc(C(=O)Nc4c[nH]c(=O)[nH]c4=O)cc3C2=O)c1`: the “hERG current change (%, negative = inhibition) at 1uM” value is reported as 15.7%. `COc1ccc(/C=N/n2cnnc2)cc1Oc1nc(Cl)ncc1F`: the “hERG current change (%, negative = inhibition) at 1uM” value amounted to 1.77%. Consider `CS(=O)(=O)N(Cc1ccccc1)c1ccccc1C(=O)O`, for which the “hERG current change (%, negative = inhibition) at 1uM” value is given as 16.7%. `CNC(=O)CN(c1ccc(C23CC4CC(CC(C4)C2)C3)cc1)S(C)(=O)=O`: the “hERG current change (%, negative = inhibition) at 1uM” value is 7.92%.

Turning to `Cc1ccc(Oc2ccccc2/C=N/O)cc1`, the “hERG current change (%, negative = inhibition) at 1uM” value is given as 5.4%. With `CCCNC(=O)c1c(N)n(-c2ccc3c(c2)OCO3)c2nc3ccccc3nc12`, the “hERG current change (%, negative = inhibition) at 1uM” value came to 16.2%. In the case of `O=S(=O)(NCc1ccccc1Cl)c1cccs1`, the “hERG current change (%, negative = inhibition) at 1uM” value is 10.1%. Then `CN(C)/C=C(\C#N)S(=O)(=O)c1ccccc1`, with 7.33%. On to `Cc1cc(Nc2ccccc2Cl)nc(-c2ccccc2O)n1`, for which the “hERG current change (%, negative = inhibition) at 1uM” value stood at 12.6%. Then `COc1ccc(NC(=O)c2cc(-c3ccco3)on2)c(OC)c1`, with 19.4%.

For `CCN1CC(CN(C)Cc2cn(-c3ccc(C)cc3)nc2-c2cccc(C)c2)CC1=O` (stereo not shown), the “hERG current change (%, negative = inhibition) at 1uM” value was -3.48%. In the case of `Cn1c(=O)c2sccc2n2c(CCCC(=O)N3CCCCC3)nnc12`, the “hERG current change (%, negative = inhibition) at 1uM” value was 12.7%. On to `CN(C)C(CNC(=O)c1ccccc1C(F)(F)F)c1ccco1` (stereo not shown), for which the “hERG current change (%, negative = inhibition) at 1uM” value was found to be 11.4%. With `CCN1C(=O)CC(N2CCC(C(=O)N3CCOCC3)CC2)C1=O` (stereo not shown), the “hERG current change (%, negative = inhibition) at 1uM” value is 7.55%.

Consider `O=C(O)C1C2C=CC(CC2)C1C(=O)O` (stereo not shown), for which the “hERG current change (%, negative = inhibition) at 1uM” value amounted to 15%. Then `CCOc1cnc(C(=O)NNC(=O)c2ccccc2Br)o1`, with 11.7%; and `CN(C)/C=C1\C=C(c2ccccc2)OC1=O`, with 15.4%; and `Cc1cc(NC(=O)Cc2ccccc2)no1`, with 11%. Consider `COCCn1c(N)c(N(Cc2ccccc2)C(=O)c2ccc(C#N)cc2)c(=O)[nH]c1=O`, for which the “hERG current change (%, negative = inhibition) at 1uM” value was found to be 1.98%. With `O=C(Cc1ccc(-c2ccccc2)cc1)NNC(=S)NCc1ccco1`, the “hERG current change (%, negative = inhibition) at 1uM” value is listed as 10.7%. `Nc1nc(NCc2ccccc2)n(-c2ccccc2)n1`: the “hERG current change (%, negative = inhibition) at 1uM” value is given as 16.4%. On to `CCOC(=O)C1=C(C)NC(C)=C(C(=O)OC)C1c1cccc([N+](=O)[O-])c1` (stereo not shown), for which the “hERG current change (%, negative = inhibition) at 1uM” value is recorded as -0.602%. Consider `Cc1ccc(-c2nnn(CC(=O)N(c3ccc(F)cc3)C(C(=O)NC3CCCC3)c3ccco3)n2)o1` (stereo not shown), for which the “hERG current change (%, negative = inhibition) at 1uM” value was found to be 15.7%. The value for `CC(=O)NC1C(Oc2ccc3c(C)cc(=O)oc3c2)OC(COC(C)=O)C(OC(C)=O)C1OC(C)=O` (stereo not shown) was 16.1%; that for `Cc1cc(C(=O)Nc2cccc(C(=O)O)c2)c(C)o1` was -6.6%. On to `Cc1cc(N2CCOCC2)nc(SCC(=O)c2ccc(Cl)cc2)n1`, for which the “hERG current change (%, negative = inhibition) at 1uM” value turned out to be 10.9%. Then `Cc1cc(C)cc(OCC(=O)Nc2ccc(N3CCCC3)cc2)c1`, with 14.4%. On to `COc1ccc(-c2cc(C(F)(F)F)nc(SCCC(=O)N3CCN4CCCC4C3)n2)cc1` (stereo not shown), for which the “hERG current change (%, negative = inhibition) at 1uM” value was found to be 3.75%. As to `C#CCn1c(CCNC(=O)c2ccco2)nc2ccccc21`, the “hERG current change (%, negative = inhibition) at 1uM” value was 14.7%. Then `CN1N=C(C(=O)N2CCc3c([nH]c4ccccc34)C2c2c(F)cccc2Cl)CCC1=O` (stereo not shown), with -20.5%. For `O=c1c2ccccc2ncn1-c1ccc(Cl)cc1Cl`, the “hERG current change (%, negative = inhibition) at 1uM” value came to 11.9%.

`O=C(NCCc1ccccc1)c1cc(=O)[nH]c2ccccc12`: the “hERG current change (%, negative = inhibition) at 1uM” value is given as 1.99%.

Consider `Cc1ccc(NC(=O)CSc2nnc(CNC(=O)c3cccs3)o2)cc1`, for which the “hERG current change (%, negative = inhibition) at 1uM” value is 14.5%. As to `CC1Sc2ccc(C(=O)N3CCCC(C(F)(F)F)C3)cc2NC1=O` (stereo not shown), the “hERG current change (%, negative = inhibition) at 1uM” value is listed as 2.77%. The value for `CC1=Nc2cc(C(=O)NCc3ccco3)ccc2Sc2ccc(C)cc21` was -4.78%.
